Data published in PubChem BioAssay AID488969 (Vanderbilt High Throughput Screening Facility, 2010).
In all, about 110,000 compounds were measured (“z-score”: median about -0.1, highest 2% from about 2 on). The list shows a part of the results.

target: Metabotropic glutamate receptor 8 (Rattus norvegicus) (UniProt P70579); assay: mGluR8 Gi/Go-coupled signaling modulation – cell-based, rat, thallium flux, HTS, primary screen (AID 488969); conditions: HEK293 rat mGluR8, GIRK (G protein-gated inwardly rectifying potassium channel) thallium flux, FluoZin2; at 10 µM; stronger effect = higher value; submaximal glutamate (EC20) added with thallium
Sequence of UniProt P70579 (P70579 whole entry, looked up): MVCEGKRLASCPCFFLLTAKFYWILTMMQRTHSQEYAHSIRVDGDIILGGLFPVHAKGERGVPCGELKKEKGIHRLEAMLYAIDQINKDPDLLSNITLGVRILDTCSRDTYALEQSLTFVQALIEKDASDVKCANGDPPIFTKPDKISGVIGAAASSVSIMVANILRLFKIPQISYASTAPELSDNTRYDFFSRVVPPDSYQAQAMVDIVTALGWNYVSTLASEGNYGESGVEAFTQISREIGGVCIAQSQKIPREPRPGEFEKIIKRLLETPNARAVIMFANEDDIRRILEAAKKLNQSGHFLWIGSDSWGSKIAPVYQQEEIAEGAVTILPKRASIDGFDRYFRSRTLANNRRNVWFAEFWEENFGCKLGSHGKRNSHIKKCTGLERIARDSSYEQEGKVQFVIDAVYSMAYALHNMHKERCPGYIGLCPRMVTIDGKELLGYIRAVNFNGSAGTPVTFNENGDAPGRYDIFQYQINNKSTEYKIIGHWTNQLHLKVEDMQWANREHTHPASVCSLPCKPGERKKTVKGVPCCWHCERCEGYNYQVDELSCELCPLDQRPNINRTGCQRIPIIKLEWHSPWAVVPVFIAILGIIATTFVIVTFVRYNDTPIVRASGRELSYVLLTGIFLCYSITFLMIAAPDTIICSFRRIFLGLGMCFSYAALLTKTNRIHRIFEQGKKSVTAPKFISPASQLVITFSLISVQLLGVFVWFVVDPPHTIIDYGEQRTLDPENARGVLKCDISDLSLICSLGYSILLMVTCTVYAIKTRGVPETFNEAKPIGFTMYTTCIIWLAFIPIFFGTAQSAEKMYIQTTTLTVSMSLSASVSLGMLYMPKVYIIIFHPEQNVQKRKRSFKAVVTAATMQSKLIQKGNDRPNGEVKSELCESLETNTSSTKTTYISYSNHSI

First: COc1ccc(NC(=O)CSCC(=O)N2c3ccccc3CCc3ccccc32)cc1
Second: COc1ccc(N2CC(C(=O)OCC(=O)c3ccccc3)CC2=O)cc1 (configuration not stated)
The z-score of the first is higher: -0.15 for the first, -0.343 for the second.

First: CCOC(=O)C1=C(C(F)(F)F)Nc2ncnn2C1c1ccc(OC)c(OC)c1OC (configuration not stated)
Second: CCOc1ccc(NC(=O)Nc2cc(C)ccc2OC)cc1
The z-score of the first is lower: 0.0602 for the first, 1.89 for the second.

First: O=c1c(-c2ccc(Cl)cc2)[n+]([O-])c2ccccc2n1OCc1ccccn1
Second: O=C(NCc1ccccn1)C(C(=O)c1ccc(F)cc1)n1ccccc1=O (configuration not stated)
The z-score of the first is lower: -0.125 for the first, 0.0468 for the second.

Going from `O=C(CN1CCCCC1)Nc1ccccc1-c1ccccc1` to `Cc1ccccc1OCC(=O)NNC(=O)CN1C(=O)c2ccccc2C1=O`, the z-score rises from -1.09 to -0.179.

Compared with `COc1ccc(NS(=O)(=O)c2ccc3nc(COc4cccc5ccccc45)[nH]c3c2)cc1`, `COc1ccc(N(CCCN2C(=O)c3cccc4cccc(c34)C2=O)C(=O)c2cccc(OC)c2)cc1` is higher in z-score: -0.0403 for the first, 0.116 for the second.

Compared with `COc1ccc(N=Cc2c[nH][nH]c2=O)cc1`, `COc1ccc(/C=N/N=C2/NC(=O)CC(C(=O)O)S2)cc1` (configuration not stated) is lower in z-score: -0.194 for the first, -0.208 for the second.

First: CNC(=S)N/N=C/c1cc(Br)cc(Br)c1O
Second: Cc1ccc(C(C)C)c(OCc2ccc(C(=O)N/N=C/c3ccc(O)cc3O)cc2)c1
The z-score of the first is higher: 1.79 for the first, -0.1 for the second.

Compared with `CN=C1SC(CC(=O)Nc2ccc(C(C)=O)cc2)C(=O)N1C` (configuration not stated), `Cc1cccc(NC(=O)c2cc(NC(=O)CCCC(=O)O)ccc2Cl)n1` is higher in z-score: -0.153 for the first, 1.63 for the second.

Going from `COc1ccc(NC2CCN(C3CC(=O)N(c4ccc(F)c(Cl)c4)C3=O)CC2)cc1` (configuration not stated) to `Cc1nc2cc(NC(=O)Nc3ccc(N4CCOCC4)cc3)ccc2n1C`, the z-score falls from 0.635 to 0.497.

Going from `Cc1nc(-c2cccc(S(=O)(=O)N3CC(C)CC(C)C3)c2)cs1` (configuration not stated) to `O=C(Nc1cccc(S(=O)(=O)N2CCCC2)c1)c1ccc2c(c1)OCO2`, the z-score falls from -0.269 to -0.514.

First: O=C(COC(=O)c1sc2cc(F)ccc2c1Cl)Nc1ncc(Cl)cc1Cl
Second: CCOC(=O)C1=C(N)Oc2c(oc(CO)cc2=O)C1c1c(F)cccc1Cl (configuration not stated)
The z-score of the first is higher: -0.0268 for the first, -0.854 for the second.

Going from `CCOC(=O)C1CCN(C(=O)Cc2cccs2)CC1` to `COC(=O)c1ccc(C(C(=O)NC2CCCCC2)N(CCc2ccccc2)C(=O)Cc2cccs2)cc1` (configuration not stated), the z-score rises from -0.606 to -0.269.

Going from `CCOc1ccccc1/C=C(/NC(=O)c1ccccc1)C(=O)N(CC)CC` to `Cc1ccccc1CSCCNC(=O)CCSc1ccccc1`, the z-score rises from -0.729 to -0.385.

First: O=c1[nH]c(N2CCCCC2)nc2c1CCCC2
Second: CCC(=O)c1ccc(N2CCCC2)c(F)c1
The z-score of the first is lower: -0.0686 for the first, 0.0378 for the second.

First: CCCCC(=O)NC1(C(F)(F)F)C(=O)N(CC(C)C)C2=C1C(=O)CC(C)(C)C2 (configuration not stated)
Second: CCOC(=O)CNC(=O)Cn1c(C)cc2ccccc2c1=O
The z-score of the first is lower: -0.21 for the first, 0.0766 for the second.

First: Cc1c(Cl)cccc1NC(=S)N(CCCN1CCOCC1)Cc1cccs1
Second: CCCC(=O)Nc1cc(-c2nn(C)c(=O)c3ccccc23)ccc1N1CCOCC1
The z-score of the first is higher: -0.314 for the first, -0.907 for the second.

Compared with `Cn1ccnc1SCC(=O)Nc1cccc(O)c1`, `Cc1ccc(CC(=O)Nc2cccc(C)n2)cc1` is lower in z-score: -0.145 for the first, -0.243 for the second.

Compared with `COc1ccc2c(c1)CCc1c(C(=O)N3CC4(C)CC3CC(C)(C)C4)noc1-2` (configuration not stated), `COc1cccc(NS(=O)(=O)c2c(C)n(C)c(=O)n(C)c2=O)c1` is higher in z-score: -0.354 for the first, 0.496 for the second.

Compared with `O=C(c1ccccn1)N1CCN(c2ccc(C(F)(F)F)cn2)CC1`, `Cc1ccccc1C(=O)N1CCN(c2ccc(NC(=O)c3ccco3)cc2Cl)CC1` is lower in z-score: 0.0382 for the first, -0.144 for the second.

Going from `N#Cc1c(N)nc2c3c(sc(=N)c2c1N)NC(=O)CC3c1c(F)cccc1Cl` (configuration not stated) to `Cc1ccc(CC2S/C(=N/c3ccccn3)NC2=O)cc1` (configuration not stated), the z-score rises from -0.296 to 0.0705.

Going from `O=C(N/N=C/c1ccc(F)cc1)c1ccc(Br)cc1` to `COc1ccc(CCNC(=O)c2ccc(Cl)cc2)cc1`, the z-score falls from 0.445 to -0.0532.

Going from `CCOC(=O)c1sc(NC(=O)/C=C/c2cnn(C)c2C)c(C(=O)OC(C)C)c1C` to `Cc1onc(-c2ccccc2)c1C(=O)NNC(=S)NC(=O)/C=C/c1cccs1`, the z-score rises from -0.129 to 1.86.

Compared with `CCCN(CCC)S(=O)(=O)c1ccc(NS(=O)(=O)c2ccc(F)cc2)cc1`, `CCN(c1ccccc1)S(=O)(=O)c1ccc2[nH]cc(C(=O)NCCOC)c(=O)c2c1` is higher in z-score: -0.328 for the first, -0.154 for the second.

First: COc1cc(C)nc(N(Cc2ccccc2)S(=O)(=O)c2ccccc2)n1
Second: CCOc1ccccc1CN(Cc1ccco1)S(=O)(=O)c1ccc(-n2cnnn2)c(OC)c1
The z-score of the first is higher: 2.43 for the first, 0.115 for the second.

First: C=CCNC(=O)c1ccccc1NC(=O)c1ccc(Cl)c(S(=O)(=O)Nc2ccccc2)c1
Second: COC(=O)c1cccc(Cn2c(Cl)c(/C=N/NC(=O)c3ccccc3Cl)sc2=O)c1
The z-score of the first is lower: -0.506 for the first, 0.0725 for the second.

Compared with `CCCn1nc2cc(C(=O)NCc3ccc4c(c3)OCO4)ccc2c1OCC`, `Cn1nc(CC(=O)NCc2ccc(C(F)(F)F)cc2)c2ccccc2c1=O` is higher in z-score: -0.409 for the first, -0.231 for the second.

Going from `C/C(=N\N=C(/N)SC1CC(=O)N(c2cccc(Cl)c2)C1=O)c1cccs1` (configuration not stated) to `CCOC(=O)c1[nH]c2ccccc2c1NC(=O)c1ccco1`, the z-score falls from 0.517 to 0.488.

Compared with `CC(=O)OC[C@H]1O[C@@H](Sc2cccc3cccnc23)[C@H](OC(C)=O)[C@@H](OC(C)=O)[C@H]1OC(C)=O`, `COc1ccc(S(=O)(=O)N2CCC(C(=O)Nc3ccccc3C)CC2)c2cccnc12` is lower in z-score: 0.891 for the first, -0.563 for the second.

First: O=C(CCCNS(=O)(=O)c1ccc(Br)cc1)N1CC[C@@]2(O)CCCC[C@H]2C1
Second: O=C(NC1CCC(O)CC1)c1ccc(S(=O)(=O)NCc2ccco2)cc1 (configuration not stated)
The z-score of the first is higher: 0.802 for the first, -0.706 for the second.

First: CC(=O)NC(NC(C)=O)c1ccc(N(C)C)cc1
Second: O=C(CN1CCN(c2ccc(O)cc2)CC1)NC(=O)NCc1ccco1
The z-score of the first is higher: 0.737 for the first, 0.00611 for the second.

Compared with `CC1(C)CC(=O)CC(=O)/C1=N\Nc1c(Cl)cc(Cl)cc1Cl`, `Cc1oc2c(CN3CCCC3)c(O)ccc2c(=O)c1-c1ccc(Br)cc1` is higher in z-score: -0.302 for the first, -0.0932 for the second.

Compared with `Cc1nccn1CC(O)COC1CCCCC1` (configuration not stated), `O=C(Cn1nc(-c2ccc(Cl)cc2)c2ccccc2c1=O)NCC1CCCO1` (configuration not stated) is higher in z-score: -0.0665 for the first, 0.304 for the second.

Going from `CCOC(=O)c1ccc(NC(=O)CSc2nnc(NC(=O)c3ccc(S(=O)(=O)N4CCOCC4)cc3)s2)cc1` to `Cc1ccc(CS(=O)(=O)Cc2ccc(C(=O)NCc3cccnc3)o2)cc1`, the z-score rises from 0.00895 to 0.895.

With `c1ccc(CN2CN=C(Nc3nc4ccccc4s3)NC2)cc1` the z-score was -0.813.
